Assay results published in PubChem BioAssay AID1460 (National Center for Advancing Translational Sciences (NCATS), 2008).
The whole screen tested about 270,000 compounds, of which about 5,800 (2.1%) were called active. The shares of active, inactive and inconclusive entries below differ from those in the screen. Calls come from the whole dose curve; as a rule, active = well fitted inhibition curve with a large enough effect; inconclusive = small, poorly fitted or top-dose-only effect; inactive = flat fitted curve, though single readings scatter. Where the call is inconclusive, the potency comes from a doubtful curve fit.

What follows are molecules tested against Microtubule-associated protein tau (Homo sapiens) (UniProt P10636) (assay: qHTS for Inhibitors of Tau Fibril Formation, Thioflavin T Binding). Conditions: recombinant tau K18 P301L (four-repeat tau fragment), heparin-induced fibrillization, ThT fluorescence; series mostly up to 57.4 µM.
Sequence of UniProt P10636 (P10636 whole entry, looked up, the tested form may be a part): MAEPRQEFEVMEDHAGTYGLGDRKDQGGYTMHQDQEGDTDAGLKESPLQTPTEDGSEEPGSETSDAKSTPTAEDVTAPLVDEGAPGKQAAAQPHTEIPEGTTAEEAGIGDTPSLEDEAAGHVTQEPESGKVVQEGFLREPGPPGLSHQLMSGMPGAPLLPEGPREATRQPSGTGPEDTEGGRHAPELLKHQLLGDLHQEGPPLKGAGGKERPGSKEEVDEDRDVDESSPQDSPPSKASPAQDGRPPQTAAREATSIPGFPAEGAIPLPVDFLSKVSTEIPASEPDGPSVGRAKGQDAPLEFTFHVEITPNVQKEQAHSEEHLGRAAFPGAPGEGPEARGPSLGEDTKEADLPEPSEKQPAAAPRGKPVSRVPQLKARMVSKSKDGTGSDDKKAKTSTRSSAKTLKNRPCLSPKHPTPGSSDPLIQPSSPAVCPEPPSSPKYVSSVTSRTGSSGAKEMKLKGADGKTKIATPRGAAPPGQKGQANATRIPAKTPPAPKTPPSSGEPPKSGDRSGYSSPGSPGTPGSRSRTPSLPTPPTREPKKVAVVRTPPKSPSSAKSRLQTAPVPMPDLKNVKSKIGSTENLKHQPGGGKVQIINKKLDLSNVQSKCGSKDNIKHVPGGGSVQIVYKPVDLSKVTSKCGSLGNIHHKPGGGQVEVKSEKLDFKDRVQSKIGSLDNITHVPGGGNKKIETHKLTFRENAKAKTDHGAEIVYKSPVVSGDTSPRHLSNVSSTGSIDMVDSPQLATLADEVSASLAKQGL
How it was run: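 Aggregation was driven by heparin (20 uM final) acting on recombinant tau […] bearing P301L in 100 mM sodium acetate pH 7; fibrils were detected with Thioflavin T.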
% is set by controls: 0 for no effect and ±100 for the full control effect; potency is the fitted concentration of half-maximal effect; tags give direction and shape of the fitted curve.
Note: nearly all actives have a fitted effect of over 55% in size.

With COC(=O)c1sc(NC(=O)c2ccc(Cn3cc(Cl)cn3)o2)c(C#N)c1C as the molecule, how does the Potency read?
Its Potency is active: 25.1 µM.

With O=C(CCNc1cccc(F)c1)c1cccc([N+](=O)[O-])c1 as the molecule, how does the Potency read?
Its Potency is inconclusive: 20 µM [inhibitor, partial curve].

How did the Potency turn out when O=C(O)CCn1cc(C2CC(c3ccccc3)=NN2c2ccccc2)c(-c2ccccc2)n1 (configuration not stated) was run?
Its Potency is inconclusive: 22.4 µM [inhibitor, partial curve].

For CN(C(=O)c1ccc(OC2CCN(S(=O)(=O)N(C)C)CC2)cc1)C1CCCCC1, which Potency is on record?
Its Potency is inconclusive: 15.8 µM [inhibitor, partial curve].

How did the Potency turn out when COCCNC(=O)Cn1nc(C(F)(F)F)c(Br)c1C was run?
Its Potency is “inactive”.

How did the Potency turn out when Cc1csc(=Nc2ccc(S(=O)(=O)N3CCOCC3)cc2)n1Cc1ccco1 was run?
The Potency was inconclusive: 3.55 µM [inhibitor, single point].

With CCc1nn(CCCN2CCN(c3cccc(Cl)c3)CC2)c(=O)n1CCOc1ccccc1 as the molecule, how does the Potency read?
Its Potency is inconclusive: 17.8 µM [inhibitor, partial curve].

How did the Potency turn out when Cc1c(Cl)cccc1NC(=O)CSc1nc(=O)n(Cc2ccncc2)c2c1CCC2 was run?
Its Potency is “inactive”.

Cc1ccc2c(c1)/C(=N/N1C(=O)c3ccccc3C1=O)C(=O)N2 was tested. Which Potency did it give?
The Potency was inconclusive: 39.8 µM [inhibitor, single point].

For Cc1ccc2nc(-c3ccc(SCC(=O)N4CCc5ccccc54)nc3)[nH]c2c1, which Potency is on record?
The Potency was inconclusive: 0.631 µM [inhibitor, full curve, poor fit].

How did the Potency turn out when Cn1c(=O)n(Cc2ccccc2Cl)c(=O)c2c1nc1n2CCN1c1ccccc1 was run?
The Potency was “inactive”.

Which Potency does the source give for COCCN=c1scc(-c2cc(OC)ccc2OC)n1/N=C/c1c[nH]c2ccccc12 here?
The Potency was inconclusive: 14.1 µM [inhibitor, partial curve].

Which Potency does the source give for CN(C)c1ccc(NC(=O)c2cccc(C(=O)Nc3ccc(N(C)C)cc3)n2)cc1 here?
Its Potency is active: 15.8 µM.

With COc1cc(OC)cc(C(=O)N2CCC(N3CCN(c4ccccc4)CC3)CC2)c1 as the molecule, how does the Potency read?
The Potency was “inactive”.

How did the Potency turn out when COc1cccc(C(=O)N2CCSC2=S)c1 was run?
The Potency was inconclusive: 22.4 µM [inhibitor, partial curve].

For CNc1nc(N/N=C/c2cc3c(cc2[N+](=O)[O-])OCO3)nc(Nc2ccccc2)n1, which Potency is on record?
The Potency was active: 7.08 µM.

Which Potency does the source give for CCn1c(SCC(=O)c2ccc(C)cc2)nnc1-c1ccoc1C here?
The Potency was inconclusive: 31.6 µM [inhibitor, single point].

With CCc1ccc(OCC(=O)Nc2cc3oc4ccccc4c3cc2OC)c(Br)c1 as the molecule, how does the Potency read?
Its Potency is inconclusive: 2.51 µM [inhibitor, partial curve].

Oc1ccc(O)c(Cc2nc3ccccc3s2)c1 was tested. Which Potency did it give?
Its Potency is inconclusive: 12.6 µM [inhibitor, partial curve].

For N#Cc1ccc(OCC(=O)N/N=C2\CCc3ccccc32)cc1, which Potency is on record?
Its Potency is inconclusive: 10 µM [inhibitor, partial curve, poor fit].

Which Potency does the source give for COc1cc(/C=C2\SC(=O)N(Cc3ccc(F)cc3)C2=O)cc([N+](=O)[O-])c1O here?
The Potency was active: 14.1 µM.

With O=C(N/N=C/c1ccc(O)c(O)c1)c1cccc(S(=O)(=O)N2CCCCC2)c1 as the molecule, how does the Potency read?
The Potency was “inactive”.

CCc1ccc(C(=O)/C=C/NCc2ccc(F)cc2)cc1 was tested. Which Potency did it give?
Its Potency is inconclusive: 11.2 µM [inhibitor, partial curve].

How did the Potency turn out when O=C(NCCc1cn2ccccc2n1)c1cc(COc2ccc3ncccc3c2)on1 was run?
The Potency was inconclusive: 0.126 µM [inhibitor, full curve].

Cc1cc(OCCN2CCCC2)ccc1[N+](=O)[O-] was tested. Which Potency did it give?
Its Potency is “inactive”.

Which Potency does the source give for COc1ccccc1[C@H]1C(c2ccccc2)=NN(c2ccccc2)[C@@H]1CO here?
The Potency was inconclusive: 39.8 µM [inhibitor, partial curve].

For CC(=O)N1CCc2c(sc(NC(=O)C3CC3)c2-c2nc3ccccc3s2)C1, which Potency is on record?
Its Potency is inconclusive: 25.1 µM [inhibitor, partial curve].

With CC(C)c1ccc(Nc2cc(C(=O)NCCCN(C)Cc3ccccc3)c3ccccc3n2)cc1 as the molecule, how does the Potency read?
The Potency was “inactive”.

How did the Potency turn out when O=C(Nc1ccc2nc(-c3ccc(Br)o3)[nH]c2c1)c1ccco1 was run?
Its Potency is inconclusive: 3.16 µM [inhibitor, full curve].

CC(=O)Nc1ccc(-c2nnc(SCC(=O)n3c4c(c5ccccc53)CCCC4)n2C)cc1 was tested. Which Potency did it give?
Its Potency is inconclusive: 17.8 µM [inhibitor, partial curve, poor fit].

With O=C(NCCN1CCOCC1)C1CCN(c2ncnc3c2sc2cccc(F)c23)CC1 as the molecule, how does the Potency read?
Its Potency is “inactive”.

How did the Potency turn out when CN(CCNC(=O)c1ccc(/C=N/O)nc1)Cc1ccccc1 was run?
Its Potency is “inactive”.

For CCOC(=O)c1ccc(NC(=O)CSc2cc(-c3ccccc3)nc(C)n2)cc1, which Potency is on record?
Its Potency is inconclusive: 1.41 µM [inhibitor, partial curve, poor fit].

For Cc1cc(C(=O)COC(=O)c2ccc(N)c([N+](=O)[O-])c2)c(C)n1Cc1ccc2c(c1)OCO2, which Potency is on record?
Its Potency is inconclusive: 0.316 µM [inhibitor, partial curve].

Which Potency does the source give for Cc1cccc2cc(C#N)c(SCC(=O)N3CCC(C)CC3)nc12 here?
Its Potency is inconclusive: 2.24 µM [inhibitor, partial curve].

For CCOC(=O)C(C)Oc1cccc2c(=O)n(CC(=O)N3CCCc4ccccc43)ccc12 (configuration not stated), which Potency is on record?
The Potency was “inactive”.

Which Potency does the source give for CSc1ccc(/C=N/NC(=O)c2cccc(Cl)c2)cc1 here?
The Potency was inconclusive: 1.26 µM [inhibitor, partial curve].

With COC(=O)c1cccc(NC(=O)c2cc3sccc3n2C)c1 as the molecule, how does the Potency read?
The Potency was inconclusive: 15.8 µM [inhibitor, partial curve].

CC(C)SC1=NC(C)(C)C=C(/C=C/c2c(Cl)cccc2Cl)N1 was tested. Which Potency did it give?
The Potency was inconclusive: 14.1 µM [inhibitor, partial curve].

How did the Potency turn out when CC(C)CSC1=NSC2=NC(=O)/C(=C\c3ccccc3)C(=N)N12 was run?
The Potency was inconclusive: 8.91 µM [inhibitor, full curve].

With CCOC(=O)C[C@@H](CC(C)=O)C(=O)OCC as the molecule, how does the activity, negative = inhibition read?
Its activity, negative = inhibition is inactive: -6.46% [at 11.5 µM].

Which Potency does the source give for S=C(NCc1ccc2c(c1)OCO2)Nc1ccc2nsnc2c1 here?
The Potency was inconclusive: 15.8 µM [inhibitor, partial curve, poor fit].

With Nc1ccc2oc(-c3cccs3)nc2c1 as the molecule, how does the Potency read?
The Potency was inconclusive: 28.2 µM [inhibitor, single point].

Which Potency does the source give for CN(C)c1ccc(C(=O)N/N=C/c2cc(Br)cc(Br)c2O)cc1 here?
The Potency was inconclusive: 5.62 µM [inhibitor, partial curve].

CCC(=O)N1CCN(c2ccc(NC(=O)c3ccc(-c4ccccc4)cc3)cc2)CC1 was tested. Which Potency did it give?
The Potency was inconclusive: 1 µM [inhibitor, full curve].

Which Potency does the source give for CCOc1ccc(CCNC(=O)CCCc2nnc3n(CCCOC)c(=O)c4sccc4n23)cc1 here?
Its Potency is “inactive”.

For CC(=O)C1=C(C)NC(SCC(=O)c2ccccc2)=C(C#N)C1c1ccco1 (configuration not stated), which Potency is on record?
Its Potency is active: 22.4 µM.

CCCc1[nH]n(-c2ccc([N+](=O)[O-])cc2)c(=O)c1C=NCCN1CCNCC1 was tested. Which Potency did it give?
The Potency was inconclusive: 35.5 µM [inhibitor, single point].

With CCOC(=O)C(C)Oc1cccc2c(=O)n(CC(=O)NCc3ccc4c(c3)OCO4)ccc12 (configuration not stated) as the molecule, how does the Potency read?
The Potency was inconclusive: 35.5 µM [inhibitor, single point].

For Cc1ccccc1SCCNC(=O)c1ccccc1Br, which Potency is on record?
Its Potency is inconclusive: 28.2 µM [inhibitor, single point].

Which Potency does the source give for O=[N+]([O-])c1cccc(/C([O-])=C(/C(=S)Nc2ccccc2F)[n+]2ccccc2)c1 here?
Its Potency is inconclusive: 31.6 µM [inhibitor, single point].

Which Potency does the source give for CC/C(=N/NC(=O)c1ccc(Br)o1)c1ccc(Cl)cc1 here?
The Potency was inconclusive: 12.6 µM [inhibitor, single point].

With CCC1Oc2ccc(C)cc2N(CC(=O)NCc2ccc(F)cc2)C1=O (configuration not stated) as the molecule, how does the Potency read?
The Potency was “inactive”.

For CC(C)c1nn2c(=O)cc(COC(=O)c3cccc(NC(=O)c4ccccc4F)c3)nc2s1, which Potency is on record?
Its Potency is inconclusive: 0.631 µM [inhibitor, full curve].

With CC(C)SC1=NC(C)(C)C=C(/C=C/c2ccc(Cl)cc2Cl)N1 as the molecule, how does the Potency read?
Its Potency is inconclusive: 20 µM [inhibitor, partial curve].

Which Potency does the source give for Oc1cccc(/C=N/N(Cc2ccccc2)c2ccccc2)c1 here?
Its Potency is inconclusive: 28.2 µM [inhibitor, single point].

For COc1ccc2c(c1)c(=O)oc1cc(OCC(=O)NC3CC3)ccc12, which Potency is on record?
The Potency was inconclusive: 2 µM [inhibitor, full curve].

Which Potency does the source give for CC(=O)Oc1ccc2c(=O)c(Oc3ccccc3)coc2c1OC(C)=O here?
The Potency was inconclusive: 20 µM [inhibitor, partial curve].

For Cc1sc2ccccc2[n+]1CCC(C)S(=O)(=O)[O-] (configuration not stated), which Potency is on record?
Its Potency is inconclusive: 22.4 µM [inhibitor, partial curve].

O=C(CSc1nnc(-c2cnccn2)n1Cc1ccco1)c1ccc(Cl)c(Cl)c1 was tested. Which Potency did it give?
Its Potency is inconclusive: 31.6 µM [inhibitor, partial curve].

Which Potency does the source give for COc1cccc2sc(N(Cc3cccnc3)C(=O)C3CCCCC3)nc12 here?
Its Potency is inconclusive: 25.1 µM [inhibitor, single point].

With Brc1ccc2c(c1)C(c1cccnc1)=NNC(c1cccs1)=N2 as the molecule, how does the Potency read?
The Potency was inconclusive: 28.2 µM [inhibitor, partial curve].

O=C(c1ccco1)N1CCN(S(=O)(=O)Cc2ccccc2Cl)CC1 was tested. Which Potency did it give?
Its Potency is “inactive”.

Which Potency does the source give for CC1CCc2c(sc3nc(-c4cc5ccccc5oc4=O)nc(Cl)c23)C1 (configuration not stated) here?
The Potency was inconclusive: 7.94 µM [inhibitor, partial curve].

Which Potency does the source give for O=C(O)c1ccc(S(=O)(=O)N(Cc2cccs2)CC2CCCO2)cc1 (configuration not stated) here?
The Potency was “inactive”.

How did the Potency turn out when O=c1[nH]cnc(O)c1C(c1cccc([N+](=O)[O-])c1)c1c(O)nc[nH]c1=O was run?
Its Potency is “inactive”.

O=C(N/N=C/c1cc(O)ccc1[N+](=O)[O-])c1ccc2c(c1)OCCO2 was tested. Which Potency did it give?
Its Potency is inconclusive: 5.01 µM [inhibitor, full curve].
